# Measurements reported in the supplement of paper PMC7826260.
# The other results are listed elsewhere or left out. Viral Rep nickase domains cut single-stranded DNA in vitro (1 h at 37 °C, 3 µM enzyme); the outer parts of the 90-letter strands are left off. A value is the log2 ratio of uncut reads to the pool without enzyme; more negative means more cut, near 0 not cut, and no call is made. Counts are relative to all reads; values above 0 arise when much of the pool is cut.
# Columns and labels:
# Assay in all cases: uncleaved DNA left, log2 of reads against the no-enzyme library (log2 ratio); higher = less cleavage (more negative = more Rep cleavage of the k-mer); sequences stand for … in CTCGTCCG…ACCGGAGA
# [1] = tested on: T1, Rep nickase domain of Muscovy duck circovirus
# T1 sequence (protein, residues 1-111, tag omitted): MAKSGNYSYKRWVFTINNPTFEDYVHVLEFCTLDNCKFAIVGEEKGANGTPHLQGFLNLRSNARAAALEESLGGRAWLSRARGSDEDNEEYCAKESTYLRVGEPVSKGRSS
# Method: (§1)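 A pool of 90-nt single-stranded DNAs with seven random bases just before the constant AC of the nick site (name = the seven bases) was cut by 3 µM recombinant His6-SUMO-tagged Rep nickase domain (300 nM DNA, 50 mM HEPES pH 8.0, 50 mM NaCl, 1 mM MnCl2, 1 h, 37 °C, three replicates). Uncut DNA was amplified and sequenced.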
# [2] = tested on: T2, Rep nickase domain of banana bunchy top virus
# T2 sequence (protein, residues 1-94, tag omitted): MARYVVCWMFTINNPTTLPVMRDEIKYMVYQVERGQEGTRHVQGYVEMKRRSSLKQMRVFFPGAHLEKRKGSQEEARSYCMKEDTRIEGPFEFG
# Method: as §1
# [3] = tested on: T3, Rep nickase domain of cabbage leaf curl virus
# T3 sequence (protein, residues 1-116, tag omitted): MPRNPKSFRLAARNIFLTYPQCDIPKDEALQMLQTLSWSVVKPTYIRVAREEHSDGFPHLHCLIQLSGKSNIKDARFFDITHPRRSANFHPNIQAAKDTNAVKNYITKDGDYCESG
# Method: as §1
# [4] = tested on: T4, Rep nickase domain of chickpea chlorotic dwarf virus
# T4 sequence (protein, residues 1-124, tag omitted): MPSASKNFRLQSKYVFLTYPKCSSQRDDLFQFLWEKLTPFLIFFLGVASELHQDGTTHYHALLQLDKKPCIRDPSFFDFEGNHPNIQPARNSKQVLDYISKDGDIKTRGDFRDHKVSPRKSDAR
# Method: as §1
# [5] = tested on: T5, Rep nickase domain of faba bean necrotic yellows virus
# T5 sequence (protein, residues 1-98, tag omitted): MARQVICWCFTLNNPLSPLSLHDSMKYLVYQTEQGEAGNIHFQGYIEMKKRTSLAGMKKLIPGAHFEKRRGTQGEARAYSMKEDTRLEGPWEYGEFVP
# Method: as §1
# [6] = tested on: T6, Rep nickase domain of maize striate mosaic virus
# T6 sequence (protein, residues 1-117, tag omitted): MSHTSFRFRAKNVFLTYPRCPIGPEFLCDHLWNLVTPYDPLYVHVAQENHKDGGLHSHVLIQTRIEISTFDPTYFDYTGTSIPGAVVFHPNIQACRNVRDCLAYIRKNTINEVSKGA
# Method: as §1
# [7] = tested on: T7, Rep nickase domain of porcine circovirus 2
# T7 sequence (protein, residues 2-116, tag omitted): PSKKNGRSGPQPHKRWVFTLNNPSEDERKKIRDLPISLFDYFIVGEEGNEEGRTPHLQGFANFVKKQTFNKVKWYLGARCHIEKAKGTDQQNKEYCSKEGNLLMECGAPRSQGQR
# Method: as §1
# [8] = tested on: T8, Rep nickase domain of tomato golden mosaic virus
# T8 sequence (protein, residues 1-124, tag omitted): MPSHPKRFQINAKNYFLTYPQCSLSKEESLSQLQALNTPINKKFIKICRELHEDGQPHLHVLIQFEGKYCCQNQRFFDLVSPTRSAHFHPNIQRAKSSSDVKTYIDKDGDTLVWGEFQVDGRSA
# Method: as §1
# [9] = tested on: T9, Rep nickase domain of tomato yellow leaf curl virus
# T9 sequence (protein, residues 1-136, tag omitted): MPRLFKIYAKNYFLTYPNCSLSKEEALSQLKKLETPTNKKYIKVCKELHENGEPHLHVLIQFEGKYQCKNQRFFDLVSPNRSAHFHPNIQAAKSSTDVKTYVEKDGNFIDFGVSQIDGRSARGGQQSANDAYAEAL
# Method: as §1
# [10] = tested on: T10, Rep nickase domain of wheat dwarf virus
# T10 sequence (protein, residues 1-137, tag omitted): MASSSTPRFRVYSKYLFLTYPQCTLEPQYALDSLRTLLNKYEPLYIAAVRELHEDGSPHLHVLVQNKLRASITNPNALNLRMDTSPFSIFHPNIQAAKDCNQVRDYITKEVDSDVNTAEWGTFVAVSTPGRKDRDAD
# Method: as §1
Sequence,uncleaved DNA left (log2) [1],uncleaved DNA left (log2) [2],uncleaved DNA left (log2) [3],uncleaved DNA left (log2) [4],uncleaved DNA left (log2) [5],uncleaved DNA left (log2) [6],uncleaved DNA left (log2) [7],uncleaved DNA left (log2) [8],uncleaved DNA left (log2) [9],uncleaved DNA left (log2) [10]
TGATTTA,-0.132,-0.0624,0.0615,-0.895,-0.0742,0.161,-0.321,-0.0637,-0.00755,0.0607
AGGCAAG,-0.0951,0.024,-0.565,-0.496,-0.0801,-0.913,0.0737,-0.0484,-0.0543,-0.0854
GTCATTA,0.00654,0.149,0.342,0.902,0.0466,1.73,0.0852,0.0737,0.121,0.047
AACCATA,-0.131,-0.0961,-0.317,-2.58,-0.0696,-0.762,-0.433,-0.0497,-0.0357,-0.0133
ACGCTAG,-0.0038,0.0597,-0.564,-0.405,0.137,-1.05,0.188,0.0988,0.0737,-0.102
TGTTTAG,0.0562,-0.0516,-0.744,-0.617,0.0233,-1.37,0.124,-0.0705,0.0159,-0.121
TGGAGGT,0.0945,-0.0101,0.386,1.15,-0.012,1.51,0.116,0.0586,-0.102,0.048
CCGCTTA,0.0124,-0.0345,-0.0538,-0.782,-0.0185,-0.341,-0.02,0.143,-0.0177,0.0474
CTCTCAT,0.00264,0.0871,0.193,-0.811,0.137,-0.407,-0.416,0.0698,0.0834,0.138
TAACTGT,-0.0755,0.0126,-1.19,-2.61,-0.112,0.905,-0.0668,-0.277,0.0292,-0.282
ACGTCAC,-0.0898,-0.062,-0.238,-0.298,-0.0918,-0.773,0.00696,-0.0355,-0.182,-0.0818
CTTCAAA,0.167,0.11,0.16,-0.125,0.108,-0.502,0.039,0.116,0.0598,0.106
TTCCGAT,0.108,0.00195,0.557,0.695,-0.0222,1.38,0.0937,-0.14,0.0281,0.053
ATCCGGG,0.0897,0.0726,0.437,0.709,-0.0669,0.407,0.243,0.0772,0.0632,0.0542
TACGGCC,-0.0418,-0.104,-0.141,-0.182,-0.11,-0.452,-0.0298,-0.0364,-0.0887,-0.0419
CGGCTCT,-0.0114,-0.176,-6.82e-05,-0.652,-0.0945,0.371,-0.0578,-0.0254,-0.0288,0.0228

Sequence,uncleaved DNA left (log2) [1],uncleaved DNA left (log2) [2],uncleaved DNA left (log2) [3],uncleaved DNA left (log2) [4],uncleaved DNA left (log2) [5],uncleaved DNA left (log2) [6],uncleaved DNA left (log2) [7],uncleaved DNA left (log2) [8],uncleaved DNA left (log2) [9],uncleaved DNA left (log2) [10]
GAAGACA,0.0354,0.151,0.69,1.1,0.0807,1.98,0.291,0.109,0.132,0.255
CTGTCGA,0.126,0.0532,-0.753,-0.656,0.0357,-0.942,0.111,-0.0427,-0.0808,-0.104
CGAAAAT,-0.0484,-0.142,-0.125,-0.528,-0.114,-0.571,-0.279,-0.133,-0.0633,-0.0654
CTAGGCT,0.0556,-0.00242,-0.0576,-0.379,-0.019,-0.168,-0.0313,-0.00965,0.0281,-0.0352
GGGCAAT,0.0807,0.0907,0.861,2.01,0.0519,2.32,0.16,0.0512,-0.0356,0.162
TGTTTAT,-0.381,0.0133,0.36,0.338,0.0545,0.999,-0.471,0.167,0.125,0.119
TTGATGC,-0.0665,-0.161,-0.595,-0.594,0.0125,-1.24,-0.0388,-0.248,-0.118,-0.115
CGGTGAC,-0.0233,0.0685,0.676,1.54,-0.019,1.85,0.231,-0.104,0.0883,0.0659
GAATGCT,-2.95,-0.299,-3.07,-2.41,-0.105,-2.08,-3.22,-3.1,-0.151,-2.98
GTGGGGT,-0.0277,-0.129,0.448,1.21,-0.0563,1.74,0.121,-0.00076,-0.0268,-0.0399
CCACTTG,-0.0799,-0.16,-0.489,-1.1,0.0411,-1.07,0.0771,-0.0975,-0.00543,-0.192
GCAAGCG,-0.0349,-0.0163,-0.663,0.279,-0.0222,-0.703,0.135,-0.0438,0.00271,-0.123
AGAAGTA,0.0746,0.0994,0.0838,-0.437,0.179,-0.223,-0.125,0.151,0.0785,0.114
TAAGCTC,-0.058,0.0176,-2.18,-2.55,-0.052,0.136,0.0716,-0.199,-0.0465,-0.697
ATGCCCT,-0.0574,-0.0657,0.0996,-0.636,-0.0382,-0.124,-0.258,-0.0664,0.0211,0.106
